± gives the standard deviation of the averaged measurements.

The series is described as follows: total protein half-life in vivo (active degradation + dilution); higher = more stable protein. The settings on record: growth: N-lim chemostat, doubling time 6 h.

For the sequence “MAQAEVLNLESGAKQVLQETFGYQQFRPGQEEIIDTVLSGRDCLVVMPTGGGKSLCYQIPALLLNGLTVVVSPLISLMKDQVDQLQANGVAAACLNSTQTREQQLEVMTGCRTGQIRLLYIAPERLMLDNFLEHLAHWNPVLLAVDEAHCISQWGHDFRPEYAALGQLRQRFPTLPFMALTATADDTTRQDIVRLLGLNDPLIQISSFDRPNIRYMLMEKFKPLDQLMRYVQEQRGKSGIIYCNSRAKVEDTAARLQSKGISAAAYHAGLENNVRADVQEKFQRDDLQIVVATVAFGMGINKPNVRFVVHFDIPRNIESYYQETGRAGRDGLPAEAMLFYDPADMAWLRRCLEEKPQGQLQDIERHKLNAMGAFAEAQTCRRLVLLNYFGEGRQEPCGNCDICLDPPKQYDGSTDAQIALSTIGRVNQRFGMGYVVEVIRGANNQRIRDYGHDKLKVYGMGRDKSHEHWVSVIRQLIHLGLVTQNIAQHSALQLTEAARPVLRGESSLQLAVPRIVALKPKAMQKSFGGNYDRKLFAKLRKLRKSIADESNVPPYVVFNDATLIEMAEQMPITASEMLSVNGVGMRKLERFGKPFMALIRAHVDGDDEE”, the “total protein half-life in vivo” value reads like this: (E. coli NCM3722 delta-clpP delta-lon delta-hslV) 5.76 ± 0.82 h; (E. coli NCM3722 delta-clpP) 4.87 ± 0.2 h.

The record behind these values is the supplement of paper PMC11246515.
